Results published in paper PMC4336329 (PLoS ONE, 2015).
The campaign covered roughly 310,000 compounds. About 14,000 (4.5%) showed an effect of 50% or more. The effect is printed as a negative number. This is one part of the list.

Target: human ether-à-go-go-related gene (hERG) potassium channel (human, UniProt Q12809)
Assay: primary screen, population patch clamp on CHO cells stably expressing hERG
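Note: peak tail current of the secondary pulse compared with the same well before compound.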

Chain of human ether-à-go-go-related gene (hERG) potassium channel (Q12809 whole entry, looked up): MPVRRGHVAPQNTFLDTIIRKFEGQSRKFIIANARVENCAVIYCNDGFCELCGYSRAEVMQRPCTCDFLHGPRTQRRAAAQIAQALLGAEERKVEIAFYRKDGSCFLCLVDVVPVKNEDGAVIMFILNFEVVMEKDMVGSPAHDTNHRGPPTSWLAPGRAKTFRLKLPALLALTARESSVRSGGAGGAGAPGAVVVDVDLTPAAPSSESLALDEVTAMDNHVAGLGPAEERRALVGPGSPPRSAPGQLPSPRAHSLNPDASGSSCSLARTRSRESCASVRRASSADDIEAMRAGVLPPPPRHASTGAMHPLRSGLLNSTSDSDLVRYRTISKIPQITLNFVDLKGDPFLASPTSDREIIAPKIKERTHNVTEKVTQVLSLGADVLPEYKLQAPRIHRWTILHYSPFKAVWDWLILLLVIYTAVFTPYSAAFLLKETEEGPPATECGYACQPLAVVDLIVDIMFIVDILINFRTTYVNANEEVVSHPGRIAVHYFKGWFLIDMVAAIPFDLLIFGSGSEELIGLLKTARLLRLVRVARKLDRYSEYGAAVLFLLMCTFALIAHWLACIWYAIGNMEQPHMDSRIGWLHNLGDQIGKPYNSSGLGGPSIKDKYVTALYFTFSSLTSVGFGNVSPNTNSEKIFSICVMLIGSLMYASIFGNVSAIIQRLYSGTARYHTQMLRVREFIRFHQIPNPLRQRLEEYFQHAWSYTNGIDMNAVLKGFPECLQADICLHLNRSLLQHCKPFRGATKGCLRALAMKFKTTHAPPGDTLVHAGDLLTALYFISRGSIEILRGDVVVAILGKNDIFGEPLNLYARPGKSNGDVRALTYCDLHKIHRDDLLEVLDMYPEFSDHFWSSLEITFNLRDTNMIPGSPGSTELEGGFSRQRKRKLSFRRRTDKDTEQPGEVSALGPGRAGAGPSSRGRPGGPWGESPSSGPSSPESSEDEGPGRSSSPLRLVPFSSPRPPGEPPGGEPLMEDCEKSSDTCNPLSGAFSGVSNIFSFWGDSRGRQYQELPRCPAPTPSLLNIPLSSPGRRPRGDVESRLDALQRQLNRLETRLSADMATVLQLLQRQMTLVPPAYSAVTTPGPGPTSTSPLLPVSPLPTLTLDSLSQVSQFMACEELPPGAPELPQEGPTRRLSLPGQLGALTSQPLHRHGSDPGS

Row | SMILES | hERG current change (%, negative = inhibition) at 10uM [%]
1 | Cc1cccc(CNC(=O)c2ccc3nc(Cc4ccccc4F)oc3c2)n1 | -2.49
2 | O=C1CN(C(=O)CSc2nnc(-c3ccccc3)n2Cc2ccc3c(c2)OCO3)c2ccccc2N1 | -24.2
3 | COc1ccc(N2CCN(C(=O)C3(S(=O)(=O)c4ccc(C)cc4)CC3)CC2)cc1 | -53.7
4 | CCn1c(C)nc2cc(C(=O)N=Nc3c(O)[nH]c4c(C)cc(C)cc34)ccc21 | 11.2
5 | CCN(CC)S(=O)(=O)c1ccc(Oc2cccc(C(C)=O)c2)nc1 | -65.5
6 | CC(C)(C)OC(=O)N1CCC2(CC1)Oc1ccc(F)cc1C(=O)C21CC(c2cccnc2)=NO1 (stereo not shown) | 2.26
7 | CC(C)CC(C(=O)NCC1CCCO1)N(C(=O)Cn1nnc(-c2ccc(F)cc2)n1)c1cccc(C(F)(F)F)c1 (stereo not shown) | -0.701
8 | COc1ccccc1C(=O)NC(=O)CSc1nncn1C | 7.11
9 | O=C(CCC1CCCC1)N1CCN(S(=O)(=O)c2ccc(Br)cc2)CC1 | 0.541
10 | CCCc1nc(SCC(=O)N2CCCC2)c2c(=O)n(C)c(=O)n(C)c2n1 | -18.2
11 | CN(Cc1nc(-c2cnccn2)no1)Cc1cccc2ccccc12 | -2.31
12 | COc1ccc(-c2[nH]ncc2/C=N/NC(=O)c2ccc(Br)cc2)c(OC)c1 | -38.7
13 | CCOC(=O)/C=c1\s/c(=C(\C#N)C(=O)OCC)n(-c2ccccc2)c1=O | 9.63
14 | O=C(O)c1ccc(NC(=O)c2cccc(S(=O)(=O)Nc3ccc(C(=O)O)cc3)c2)cc1 | 13.2
15 | COc1ccc(C(=O)Nc2ccccc2C(=O)N/N=C/c2cccc3ccccc23)cc1 | 21.4
16 | COc1cc(/C=C/C(=O)O)cc(S(=O)(=O)NCCO)c1OC | 9.36
17 | COC(=O)c1ccc(NC(=O)CCNS(=O)(=O)c2cccc3nonc23)cc1 | 3.47
18 | O=C1CSC(=S)N1N=C1CCCCCC1 | 6.17
19 | COc1ccc(C2N(C(=O)CN3CCCC3)CCCN2S(=O)(=O)c2ccccc2)cc1 (stereo not shown) | -15.8
20 | O=C(NCCCN1CCOCC1)c1ccc2c(=O)n(Cc3ccccc3)c(=S)[nH]c2c1 | 10.7
21 | O=C(Cn1nc(Cc2cccnc2)c2ccccc2c1=O)N1CCC2(CC1)OCCO2 | -7.93
22 | O=[N+]([O-])c1ccccc1CNc1ccc(F)c(Cl)c1 | -10.8
23 | COCC(COS(N)(=O)=O)Cc1ccccc1 (stereo not shown) | 7.25
24 | CN1CCN(C(=O)CN(Cc2ccccc2)S(C)(=O)=O)CC1 | 25.7
25 | O=C(COc1ccc(Cl)cc1)Nc1cc2c3c(c1)CC(=O)N3CCC2 | -57.1
26 | CSc1ccc(S(=O)(=O)NCC(=O)OCC(=O)N2CC(C)CC(C)C2)cc1[N+](=O)[O-] (stereo not shown) | -22.2
27 | Cc1ccc(C(=O)C(NC(=O)c2ccco2)Nc2sc3c(c2C(N)=O)CCCC3)cc1 (stereo not shown) | -38.4
28 | CCC(Sc1ncccc1C(=O)Oc1cccc([N+](=O)[O-])c1)C(=O)Nc1ccccc1OC (stereo not shown) | 3.56

Row | SMILES | hERG current change (%, negative = inhibition) at 10uM [%]
29 | CC(C)N(Cc1nc(-c2ccccc2)no1)C(=O)c1ccc(Br)o1 | -18.8
30 | CC(C)CNS(=O)(=O)c1cc2c3c(c1)CCC(=O)N3CCC2 | 1.59
31 | CCOC(=O)CC1C(=O)NCCN1C(=S)Nc1ccccc1 (stereo not shown) | 10.3
32 | Cc1ccc(Nc2cc(C)c3c(O)cccc3n2)cc1C.Cl | 19
33 | O=C(NC12CC3CC(CC(C3)C1)C2)c1cc(F)c(F)cc1Cl | 9.46
34 | Cc1ccc2[nH]c(=O)c(Cc3ccccc3)c(O)c2c1 | 9.62
35 | O=C(NCc1ccco1)Oc1ccccc1 | 2.24
36 | O=C(CSc1nnc(CNC(=O)c2ccccc2)o1)NCc1ccc(F)cc1 | 4.25
37 | COc1cccc(-c2nc(C(N)=O)c3[nH]c(=O)n(-c4cccc(Cl)c4)c3n2)c1OC | 3.23
38 | Cc1ccc(NC(=O)CN(C)C(=O)c2n[nH]c(=O)c3ccccc23)cc1 | -26.3
39 | Cc1ccc(N(CC(=O)NCc2ccccc2Cl)S(=O)(=O)c2cccs2)cc1 | 9.48
40 | Cc1ccc(S(=O)(=O)NC(C)(C)CSc2nnc(N)s2)cc1 | -6.4
41 | Cc1c(C(C)(C)O)[nH]c2ccc(C#N)cc12 | 26.4
42 | O=C(CCS(=O)(=O)c1ccc(Cl)cc1)Nc1ccc(N2CCOCC2)cc1 | -6.95
43 | COc1coc(C(O)CN)cc1=O (stereo not shown) | 4.57
44 | COc1ccc(-c2cc(-c3ccccc3)c(C#N)c(S(C)(=O)=O)n2)cc1 | -19.4
45 | Nc1cc(N)nc(SCC(=O)c2ccc3c(c2)NC(=O)CO3)n1 | 8.41
46 | Cc1cc(=O)[nH]c(N/N=C/c2ccccn2)n1 | 13
47 | Clc1ccccc1Cc1noc(CN2CCN(Cc3ccccn3)CC2)n1 | 2.78
48 | COc1ccc(NC(=S)N2CCN(C(=O)C3CCCO3)CC2)cc1 (stereo not shown) | 11.8
49 | CNC(=S)Nc1cccc(S(=O)(=O)NC2=NCCC2)c1 | -7.6
50 | C#CCOc1ccc(/C=C2\SC(=S)N(Cc3cccnc3)C2=O)cc1 | 15.9
51 | CCn1c(=O)c([N+](=O)[O-])c(NC2CCS(=O)(=O)C2)c2ccccc21 (stereo not shown) | 5.85
52 | O=C(CCCN=C1NS(=O)(=O)c2ccccc21)OCc1ccccc1 | -31
53 | Cc1ccc(C(=O)CSc2nnc3c4ccccc4nc(Cc4ccccc4)n23)cc1 | 7.05
54 | CC(C)(C)c1cc(CCC(=O)NCc2ccncc2)cc(C(C)(C)C)c1O | 3.59
55 | COC(=O)c1sccc1NC(=O)CSc1nnnn1-c1ccccc1C | 8.65
